Source: the supplement of paper PMC7125110
± gives the standard error. This sample is rich in variants without activity.

B1: glmS ribozyme (parent)
chain: AUAAAAGCGCCAGAACUACAGAAAUGUAGUUGACGAGGAGGAGGUUUAUCGAAUUUUCGGCGGAUGCCUCCAAA

Tests used:
Details in all cases: with glucosamine-6-phosphate
[1] = variants of: B1; assay: self-cleavage kobs at 40 uM GlcN6P; higher = faster cleavage; RNA array
Procedure, shortened: (§1)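 E. coli RNA polymerase transcribed barcoded ribozyme variants in situ on sequenced MiSeq chips, which were tracked via a hybridised Cy3 probe at 37 °C. Tiles were imaged over ~14 h after glucosamine-6-phosphate (40 μM to 10 mM) in HEPES/KCl/Mg(OAc)2 buffer was flowed in. Normalised per-tile medians were fit to one- or two-exponential decays for kobs, and kcat and KM came from weighted Michaelis–Menten fits.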

[2] = variants of: B1; assay: self-cleavage kobs at 640 uM GlcN6P; higher = faster cleavage; RNA array
Procedure, shortened: as §1

[3] = variants of: B1; assay: self-cleavage kobs at 160 uM GlcN6P; higher = faster cleavage; RNA array
Procedure, shortened: as §1

[4] = variants of: B1; assay: self-cleavage kobs at 2500 uM GlcN6P; higher = faster cleavage; RNA array
Procedure, shortened: as §1

[5] = variants of: B1; assay: self-cleavage kobs at 10000 uM GlcN6P; higher = faster cleavage; RNA array
Procedure, shortened: as §1

Row | Variant | self-cleavage kobs at 40 uM GlcN6P [1] [s⁻¹] | self-cleavage kobs at 640 uM GlcN6P [2] [s⁻¹] | self-cleavage kobs at 160 uM GlcN6P [3] [s⁻¹] | self-cleavage kobs at 2500 uM GlcN6P [4] [s⁻¹] | self-cleavage kobs at 10000 uM GlcN6P [5] [s⁻¹]
1 | AUAAAAUCGCCAGAACUACAGAAAUGUAGUUGACGACGAGGAAGUUUAUCGAAUUUUCGGCGGAUGCCUCCAAA [G7U G37C G43A] | < 1e-05 | < 1e-05 | < 1e-05 | < 1e-05 | < 1e-05
2 | AUAAAAGAGCCAAUACUACAGAAAUGUAGUUGACGAGGAGGAGGUUUAUCGAAUUUUCGGCGGGUGCCUCCAAA [C8A G13A A14U A64G] | < 1e-05 | – | – | – | < 1e-05
3 | AUAAAAUCGCCAGAACUACAGAAAUGUAGUAGACGAGGAGGAGGUUUAUCGAAUUUUCGGCGAAUGCCUCCAAA [G7U U31A G63A] | < 1e-05 | – | – | – | < 1e-05
4 | AUAAAAUCGCCAGAACUACAGAAAUGUAGUUGACGAGGAGGAGGUUUAUCGAAUUAUCGGCGGAUGCCUCCAAA [G7U U56A] | < 1e-05 | < 1e-05 | < 1e-05 | – | < 1e-05
5 | AUAAAAGAGCCAGAACUACAGAAAUGUAGUUUACGAGGAGAAGGUUUAUCGAAUUUUCGUUGGAUGCCGCCAAA [C8A G32U G41A G60U C61U U69G] | < 1e-05 | < 1e-05 | < 1e-05 | < 1e-05 | < 1e-05
6 | AUAAAAUCGCCAGAACUACAGAAAUGUAGUUGACGAGGAGGAGUUUUUUCGAAUUUUCGGCGGAUGCCUCCAAA [G7U G44U A48U] | < 1e-05 | – | – | – | < 1e-05
7 | AUAAAAGAGCCAGAACUACAGAAAUGUAGUUGACGAGGAGGAGGUUUAUCGAAUUUUAGGCGGAUGCCUCCAAA [C8A C58A] | < 1e-05 | < 1e-05 | < 1e-05 | – | –
8 | AUAAAAUCGCCAGAACUACAGAAAUGUAGUUGACGAGGAGCAGGUUUAUCGAAUUUUCGGCGGAUGCCUCCAAA [G7U G41C] | < 1e-05 | < 1e-05 | < 1e-05 | < 1e-05 | < 1e-05
9 | AUAAAAGAGCCAGAACUACAGAAAUGUAGUUGACGAGAAGGAGGUUUAUCGAAUUUUCGGCGGAUGCCUCCAAA [C8A G38A] | < 1e-05 | < 1e-05 | < 1e-05 | < 1e-05 | < 1e-05
10 | AUAAAAGAGCCAGGACUACAGAAAUGUAGUUGACGAGGAGUAGGUUUAUCGAAUUUUCGGCGGAUGCCUCCAAA [C8A A14G G41U] | < 1e-05 | – | < 1e-05 | – | < 1e-05
11 | AUAAAAGAGCCGGAACUACAGAAAUGUAGUUGCCGAGGAGGAGGUUUAUCGAAUUUUCGGCGGACGCCUCCAAA [C8A A12G A33C U65C] | < 1e-05 | – | – | – | < 1e-05
12 | AUAAAAGAGUCAGAACUACAGAAAUGUAGUUGAGGAGGAGGAGGUUUAUCGAAUUUUCGGCGGAUGCCUCCAAA [C8A C10U C34G] | < 1e-05 | – | – | – | –
13 | AUAAAAGAGCCAGAACUACAGAAAUGUAGUUGACGAGGAAGAGGUUUAUCGAAUUUUCGGCGGAUGCCUCCAAA [C8A G40A] | < 1e-05 | < 1e-05 | – | < 1e-05 | –
14 | AUAAAAGAGCCAGAACUACAGAAAUGUAGUUGACGAGGACGAGGUUUAUCGAAUUUUCGGCGGAUGCCUCCAAA [C8A G40C] | < 1e-05 | < 1e-05 | < 1e-05 | < 1e-05 | < 1e-05
15 | AUAAAAGAGCCAGAACUACAGAAAUGUAGUUGAGGAGGAGGAGGUUUAUCGAAUUUUCGGCGGAUGCCUCCAAA [C8A C34G] | < 1e-05 | < 1e-05 | < 1e-05 | < 1e-05 | < 1e-05
16 | AUAAAAGAGCCAGAAUUACAGAAAUGUAGUUGACGAGGAGGAGGUUUAUCGAAUUUUCGGCGGAUGCCUCCAAA [C8A C16U] | < 1e-05 | < 1e-05 | < 1e-05 | < 1e-05 | < 1e-05
17 | AUAAAAGAGCUAGAACUACAGAAAUGUAGUUGACGAGCAGGAGGUUUAUUGAAUUUUCGGCGGAUGCCUCCAAA [C8A C11U G38C C50U] | < 1e-05 | < 1e-05 | – | < 1e-05 | –
18 | AUAAAAGAGCCAGAAAUACAGAAAUGUAGUUGACGACGAGGAGGUUUAUCGAAUUUUCGGCGGAUGCCUCCAAA [C8A C16A G37C] | < 1e-05 | – | – | – | –
19 | AUAAAAGAGACAGAACUACAGAAAUGUAGUUGACGAGGAGGAGUUAUAUCGAAUUUUCGGCGGAUGACUCCAAA [C8A C10A G44U U46A C67A] | < 1e-05 | – | – | < 1e-05 | –
20 | AUAAAAGAGCCAGAACUACAGAAAUGUAGUUGACGAGGAGGGGGUUUAUCGAAUUUUCGGCGGAUGCCUCCAAA [C8A A42G] | < 1e-05 | < 1e-05 | < 1e-05 | – | < 1e-05
21 | AUAAAAGAGCCAGAACUACAGAAAUGUAGUUGACGAGUAGGAGGUUUAUGGAAUUUUCGGCGGAUGCCUCCAAA [C8A G38U C50G] | 4.1e-05 ± 2e-05 | – | – | – | –
22 | AUAAAAGAGCCAGAACUACAGAAAUGUAGUUGACGCGGAGGAGGUUUAUCGAAUUUUCGGCGGAUGCCUCCAAA [C8A A36C] | < 1e-05 | – | < 1e-05 | < 1e-05 | < 1e-05
23 | AUAAAAGAGCCAGAACUACAGAAAUGUAGUUUACGAGGAGGAGGUUUAUCGAAUUUUCGGCGGAUGCCUCCAAA [C8A G32U] | < 1e-05 | – | – | – | –
24 | AUAAAAUCGCCAGAACUACAGAAAUGUAGUUGACCAGGAGGAGUUUUAUCGAAUUUUCGGCGGAUGCCUCCAAA [G7U G35C G44U] | < 1e-05 | – | – | – | –
25 | AUAAAAGAGCCAGAACUACAGAAAUGUAGUUGACGAUGAGGAGGUUUAUCGAAUUUUCGGCGGAUGCCUCCAAA [C8A G37U] | < 1e-05 | – | – | – | < 1e-05
